# The list shows a part of the results.
# B1: PhoQ; a variant is named by its letters at X, in order, P23837 (parent)
# chain: MKKLLRLFFPLSLRVRFLLATAAVVLVLSLAYGMVALIGYSVSFDKTTFRLLRGESNLFYTLAKWENNKLHVELPENIDKQSPTMTLIYDENGQLLWAQRDVPWLMKMIQPDWLKSNGFHEIEADVNDTSLLLSGDHSIQQQLQEVREDDDDAEMTHSVAVNVYPATSRMPKLTIVVVDTIPVELKSSYMVWSWFIYVLSANLLLVIPLLWVAAWWSLRPIEALAKEVRELEEHNRELLNPATTRELTSLVRNLNRLLKSERERYDKYRTTLTDLTHSLKTPLXXLQXXLRSLRSEKMSVSDAEPVMLEQISRISQQIGYYLHRASMRGGTLLSRELHPVAPLLDNLTSALNKVYQRKGVNISLDISPEISFVGEQNDFVEVMGNVLDNACKYCLEFVEISARQTDEHLYIVVEDDGPGIPLSKREVIFDRGQRVDTLRPGQGVGLAVAREITEQYEGKIVAGESMLGGARMEVIFGRQHSAPKDE
# Variants of: B1
# Test: enrichment ratio after two sorts for PhoP signalling (ratio (wild type AVST 3.29)); higher = more functional
# Details: with PhoP (E. coli)
row,Variant,enrichment ratio
1,EEFT,≤ 0.25
2,VATG,≤ 0.25
3,KNWR,≤ 0.25
4,AREQ,≤ 0.25
5,ELVD,≤ 0.25
6,NVSQ,≤ 0.25
7,QWIH,≤ 0.25
8,MHTP,≤ 0.25
9,QPQV,≤ 0.25
10,ERQT,≤ 0.25
11,NCKN,≤ 0.25
12,PTCQ,≤ 0.25
13,AWIA,≤ 0.25
14,LCEG,≤ 0.25
15,CISG,≤ 0.25
16,FVKV,≤ 0.25
17,REAS,≤ 0.25
18,AMKF,≤ 0.25
19,YIKA,≤ 0.25
20,PWWA,≤ 0.25
21,TFWK,≤ 0.25
22,TDWN,≤ 0.25
23,LMMV,≤ 0.25
24,HFWI,≤ 0.25

row,Variant,enrichment ratio
1,EFAN,≤ 0.25
2,VNFY,≤ 0.25
3,HKVV,≤ 0.25
4,HCHL,≤ 0.25
5,YMIN,1.07
6,MNAW,≤ 0.25
7,FPIF,≤ 0.25
8,ILFV,≤ 0.25
9,VGHR,≤ 0.25
10,LILL,≤ 0.25
11,VFNC,≤ 0.25
12,HDRL,≤ 0.25
13,WTTA,≤ 0.25
14,VLLK,≤ 0.25
15,VTQQ,≤ 0.25
16,WEDM,≤ 0.25
17,PQEI,≤ 0.25
18,FLWV,≤ 0.25
19,YYPR,≤ 0.25
20,HWGL,≤ 0.25
21,MRGA,≤ 0.25
22,FRMM,≤ 0.25
23,QPQY,≤ 0.25
24,RPGM,≤ 0.25

row,Variant,enrichment ratio
1,NLCG,≤ 0.25
2,GLPM,≤ 0.25
3,QFLT,≤ 0.25
4,DMQC,≤ 0.25
5,FCES,≤ 0.25
6,HWVI,≤ 0.25
7,IQCL,≤ 0.25
8,MILK,1.25
9,VHNL,≤ 0.25
10,GYAH,≤ 0.25
11,CYNK,≤ 0.25
12,PSWG,≤ 0.25
13,TKTN,≤ 0.25
14,WKHQ,≤ 0.25
15,DGVV,≤ 0.25
16,MGML,2.81
17,VDQV,≤ 0.25
18,TLMV,5.76
19,HHDR,≤ 0.25
20,PVRP,≤ 0.25
21,PASQ,≤ 0.25
22,LATN,≤ 0.25
23,NNVK,≤ 0.25
24,MLME,≤ 0.25

row,Variant,enrichment ratio
1,LNDS,≤ 0.25
2,INPT,≤ 0.25
3,AFTC,≤ 0.25
4,KDGT,≤ 0.25
5,CKTF,≤ 0.25
6,GQHT,≤ 0.25
7,FHDL,≤ 0.25
8,VMKP,≤ 0.25
9,EPCN,≤ 0.25
10,TEWF,22
11,GKKP,≤ 0.25
12,FRAH,≤ 0.25
13,NLEV,≤ 0.25
14,ARIL,4.85
15,CVWS,≤ 0.25
16,GRHP,≤ 0.25
17,RTCN,≤ 0.25
18,HVSF,≤ 0.25
19,DKQA,≤ 0.25
20,VDTK,≤ 0.25
21,AIIW,≤ 0.25
22,TNME,≤ 0.25
23,IEYM,≤ 0.25
24,MQCY,3.23

row,Variant,enrichment ratio
1,TLEY,≤ 0.25
2,LGEH,≤ 0.25
3,KGNY,≤ 0.25
4,MFHL,≤ 0.25
5,DLKR,≤ 0.25
6,QETC,4.56
7,MFGE,≤ 0.25
8,YGED,≤ 0.25
9,KPVW,≤ 0.25
10,AKRR,≤ 0.25
11,EHIG,≤ 0.25
12,GFVI,≤ 0.25
13,ITVQ,≤ 0.25
14,AIRT,≤ 0.25
15,AAVF,1.3
16,YRSG,≤ 0.25
17,AMSM,15.1
18,SHTM,6.19
19,VQDF,≤ 0.25
20,INPY,≤ 0.25
21,PPRH,≤ 0.25
22,NYAK,≤ 0.25
23,HTAF,≤ 0.25
24,IMCC,≤ 0.25

row,Variant,enrichment ratio
1,SKYE,≤ 0.25
2,LEKW,≤ 0.25
3,PEAF,≤ 0.25
4,KQNI,≤ 0.25
5,QGPF,≤ 0.25
6,YLSI,0.303
7,WTFL,≤ 0.25
8,VKPG,≤ 0.25
9,SYEL,≤ 0.25
10,EFFP,≤ 0.25
11,PSDY,≤ 0.25
12,YCKR,≤ 0.25
13,PANL,≤ 0.25
14,LFMV,≤ 0.25
15,ELVK,≤ 0.25
16,QGTN,≤ 0.25
17,YNTR,≤ 0.25
18,YTCA,≤ 0.25
19,QFYT,≤ 0.25
20,YTDR,≤ 0.25
21,SMRT,≤ 0.25
22,SKHG,≤ 0.25
23,VFRF,≤ 0.25
24,SHHI,≤ 0.25

row,Variant,enrichment ratio
1,ALLR,1.77
2,GCQR,≤ 0.25
3,AGAS,4.36
4,DPDF,≤ 0.25
5,ETDS,≤ 0.25
6,STLD,10.5
7,PLFC,≤ 0.25
8,NHQH,≤ 0.25
9,RGKG,≤ 0.25
10,HHRM,≤ 0.25
11,NHWG,≤ 0.25
12,QASS,8.4
13,MIAH,9.47
14,IRPF,≤ 0.25
15,AFWI,≤ 0.25
16,YHIG,≤ 0.25
17,VKFV,≤ 0.25
18,SGKW,≤ 0.25
19,YYMG,≤ 0.25
20,IKWG,≤ 0.25
21,MPVD,≤ 0.25
22,DNLE,≤ 0.25
23,SWWG,≤ 0.25
24,KCTY,≤ 0.25

row,Variant,enrichment ratio
1,GTKL,≤ 0.25
2,WSYE,≤ 0.25
3,TRTH,≤ 0.25
4,TCMY,5.37
5,DWAK,≤ 0.25
6,HDGA,≤ 0.25
7,EFWG,≤ 0.25
8,MKCP,≤ 0.25
9,LWDQ,≤ 0.25
10,MGFH,5.64
11,VISY,≤ 0.25
12,QYIC,≤ 0.25
13,HSAT,≤ 0.25
14,VSCK,≤ 0.25
15,FHMW,≤ 0.25
16,IREF,≤ 0.25
17,YWYT,≤ 0.25
18,KREF,≤ 0.25
19,KGPY,≤ 0.25
20,DCSQ,≤ 0.25
21,AIVQ,10.4
22,VHNC,≤ 0.25
23,GEIR,≤ 0.25
24,TDDE,≤ 0.25

row,Variant,enrichment ratio
1,EKWE,≤ 0.25
2,EYTQ,≤ 0.25
3,IESQ,≤ 0.25
4,NEIA,≤ 0.25
5,DLST,≤ 0.25
6,NKTS,≤ 0.25
7,MDAQ,≤ 0.25
8,VMKY,≤ 0.25
9,WKWT,≤ 0.25
10,DQQK,≤ 0.25
11,YQTR,≤ 0.25
12,TDIN,≤ 0.25
13,HTVK,≤ 0.25
14,NTFP,≤ 0.25
15,ITPC,≤ 0.25
16,PWQM,≤ 0.25
17,QRPM,≤ 0.25
18,VFMD,≤ 0.25
19,VYQR,≤ 0.25
20,NRNG,≤ 0.25
21,FMFS,≤ 0.25
22,EGLE,≤ 0.25
23,YDKN,≤ 0.25
24,TCVI,≤ 0.25

row,Variant,enrichment ratio
1,VDEP,≤ 0.25
2,LAEG,≤ 0.25
3,ALWF,≤ 0.25
4,GCAT,≤ 0.25
5,QCCP,≤ 0.25
6,NFQD,≤ 0.25
7,KKAQ,≤ 0.25
8,PDQA,≤ 0.25
9,RDHR,≤ 0.25
10,IVGN,≤ 0.25
11,VHRE,≤ 0.25
12,EGPC,≤ 0.25
13,MCVA,≤ 0.25
14,DTVS,≤ 0.25
15,FWNC,≤ 0.25
16,KLYQ,≤ 0.25
17,QKLI,4.14
18,LGSM,≤ 0.25
19,KFAF,≤ 0.25
20,ISYV,≤ 0.25
21,NMSL,≤ 0.25
22,ERQL,≤ 0.25
23,VKRH,≤ 0.25
24,WPSL,≤ 0.25

row,Variant,enrichment ratio
1,THLG,14.4
2,CVAL,≤ 0.25
3,YQKW,≤ 0.25
4,PFSV,≤ 0.25
5,HGFH,≤ 0.25
6,YCFL,≤ 0.25
7,LTPN,≤ 0.25
8,KGVE,≤ 0.25
9,PYAV,≤ 0.25
10,HTFT,≤ 0.25
11,GRPP,≤ 0.25
12,DASI,≤ 0.25
13,MPCQ,≤ 0.25
14,VVVQ,≤ 0.25
15,VMFV,≤ 0.25
16,ICMC,≤ 0.25
17,VSRT,≤ 0.25
18,VQET,≤ 0.25
19,KLAV,≤ 0.25
20,NFKF,≤ 0.25
21,LECT,9.98
22,AKNI,≤ 0.25
23,ACLM,4.08
24,YCWQ,≤ 0.25

row,Variant,enrichment ratio
1,GEKH,≤ 0.25
2,EPGY,≤ 0.25
3,VVWD,≤ 0.25
4,IMGL,≤ 0.25
5,DFID,≤ 0.25
6,MGHW,≤ 0.25
7,TWCA,≤ 0.25
8,DGTC,≤ 0.25
9,TNHK,≤ 0.25
10,ISIR,≤ 0.25
11,GPYR,≤ 0.25
12,MKYL,≤ 0.25
13,LTCD,≤ 0.25
14,MDIY,≤ 0.25
15,FSSG,≤ 0.25
16,RNRA,≤ 0.25
17,PMRM,≤ 0.25
18,AKAK,≤ 0.25
19,FHPN,≤ 0.25
20,IVAM,≤ 0.25
21,MMLT,≤ 0.25
22,ECHC,≤ 0.25
23,REMK,≤ 0.25
24,IRTN,≤ 0.25

row,Variant,enrichment ratio
1,YVCT,0.338
2,WHVD,≤ 0.25
3,MKNR,≤ 0.25
4,SFSQ,≤ 0.25
5,NENA,≤ 0.25
6,SSGQ,4.67
7,HCTN,≤ 0.25
8,VHDN,≤ 0.25
9,MFGC,≤ 0.25
10,GFWD,≤ 0.25
11,KCDT,≤ 0.25
12,WLKP,≤ 0.25
13,TDQT,34.2
14,VDWA,≤ 0.25
15,ESDA,≤ 0.25
16,CNSF,≤ 0.25
17,YINN,0.808
18,RCCD,≤ 0.25

# — a collection of fitness landscapes (doi:10.1126/science.1257360)
